Test results published in PMC11494340, “High-throughput screening for small-molecule stabilizers of misfolded glucocerebrosidase in Gaucher disease and Parkinson’s disease” (Proceedings of the National Academy of Sciences of the …, 2024).

Key:
[1] = target: T1, GCase-L444P lysosomal activity in HiBiT-GCase-L444P H4 cells (Homo sapiens, UniProt P04062, L483P); experiment: LysoFix-GBA high-content lysosomal GCase activity assay; details: 24 h compound incubation, LysoFix-GBA 5 μM
T1 sequence (P04062 40-536 L483P): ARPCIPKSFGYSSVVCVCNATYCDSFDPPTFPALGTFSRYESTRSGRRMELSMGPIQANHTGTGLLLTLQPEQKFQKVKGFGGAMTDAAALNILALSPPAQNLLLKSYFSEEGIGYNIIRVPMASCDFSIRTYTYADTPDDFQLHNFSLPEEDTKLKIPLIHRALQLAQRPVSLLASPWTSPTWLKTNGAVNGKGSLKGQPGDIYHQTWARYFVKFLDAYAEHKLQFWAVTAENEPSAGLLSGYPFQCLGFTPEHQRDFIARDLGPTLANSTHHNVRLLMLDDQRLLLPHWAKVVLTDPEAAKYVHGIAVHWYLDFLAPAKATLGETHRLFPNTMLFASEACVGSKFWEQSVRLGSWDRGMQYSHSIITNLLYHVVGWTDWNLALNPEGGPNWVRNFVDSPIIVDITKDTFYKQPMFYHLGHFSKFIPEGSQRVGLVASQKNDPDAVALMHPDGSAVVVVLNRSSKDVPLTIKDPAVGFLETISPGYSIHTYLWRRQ

[2] = test system: GluSph accumulation in HiBiT-GCase-L444P H4 cells; experiment: Glucosylsphingosine (GluSph) levels by SFC-MS/MS; assay type: cell-based, human; details: 156.25 nM, 3 d
HiBiT-GCase-L444P = target: T2, HiBiT-GCase-L444P (Homo sapiens, UniProt P04062, L483P); parameters: AUC: unit not given beside the values; details: for CC-v2: qHTS curve class; for EC50: n = 3
T2 sequence (P04062 40-536 L483P): T1 sequence (P04062 40-536 L483P)

[3] = follow-up screen, 24 h, relative to DMSO control
[4] = normalized to DMSO, 100% efficacy reflects a doubling of GCase levels

LysoFix-GBA response (GCase-L444P lysosomal activity) [1]	AC50 (HiBiT-GCase-L444P; follow-up screen, 24 h) [µM]	AUC (HiBiT-GCase-L444P; follow-up screen, 24 h)	CC-v2 (HiBiT-GCase-L444P; follow-up screen, 24 h)	Efficacy (HiBiT-GCase-L444P; [3])	Compound	Effect on GluSph accumulation [2]	EC50 (HiBiT-GCase-L444P; follow-up screen, 24 h) [µM]	Efficacy (HiBiT-GCase-L444P; [4]) [%]
inhibitory LysoFix-GBA response	–	–	–	–	OC[C@H]1CNC[C@@H](O)[C@@H]1O [Isofagomine]	–	–	–
–	–	–	–	–	Nc1c(Br)cc(Br)cc1CN[C@H]1CC[C@H](O)CC1 [NCGC00371077-02, Ambroxol HCl]	did not show an effect	–	–
inactive	1.5	92.0	1.1	–	Cc1cc(OCc2nnc(SC3CCCC3)n2-c2cccnc2)ccc1-c1ccc(S(C)(=O)=O)cc1 [NCGC00371131-03, NMS-873]	–	–	–
–	0.0206	147.1	1.2	53	CCC(CC)C(=O)OC12C(OC(=O)C(C)C)C(C)C3(O)C(C=C(CO)CC4(O)C(=O)C(C)=CC43)C1C2(C)C (stereo not drawn) [NCGC00385607-01]	–	–	–
–	0.183	203.0	1.2	70	C/C=C(\C)C(=O)OC1C(C)C2(O)C(C=C(CO)CC3(O)C(=O)C(C)=CC32)C2C(C)(C)C12OC(C)=O (stereo not drawn) [NCGC00385645-01]	–	–	–
–	18.8	18.8	2.2	71	C=C1C(=O)O[C@@H]2[C@H]1CCC(C)=C1CCC(=O)O[C@]12C [NCGC00385924-01]	–	–	–
–	14.9	30.6	1.2	67	C=CC(=O)Nc1ccc2ncnc(Nc3cccc(Br)c3)c2c1 [NCGC00386260-01, PD-168393]	–	–	–
–	37.6	14.1	1.1	–	CC(=O)N1CCN(CCOc2ccc(C3CCN(C4=Nn5c(nnc5C(F)(F)F)CC4)CC3)cc2)CC1 [NCGC00386284-02, AZD-3514]	–	–	–
–	29.8	43.0	1.1	–	Cn1nccc1Nc1nccc(-c2ccn([C@H](CO)c3ccc(Cl)c(F)c3)c(=O)c2)n1 [NCGC00386401-02, Ravoxertinib]	–	–	–
–	26.6	134.6	2.1	180	C=CC(=O)N1CCN(C(=O)CNc2cc(I)c(Cl)cc2O)CC1 [NCGC00386405-01, K-Ras(G12C) inhibitor 12]	–	–	–
–	5.3	59.0	1.2	–	C=CC(=O)N1CCC(Oc2cc3c(Nc4ccc(Cl)c(Cl)c4F)ncnc3cc2OC)CC1 [NCGC00386427-01, Poziotinib]	–	–	–
–	53	91.0	1.1	100	CC(C)(O)c1ccc2c(c1)ncn2-c1cccc(-c2ccccc2C#N)c1 [NCGC00386556-02, NS-11394]	–	–	–
–	23.7	184.5	1.1	380	O=C(NCCCn1ccnc1)c1cc(-c2ccco2)on1 [NCGC00386690-01, SKL 2001]	–	–	–
–	6	504.8	1.1	436	O=C(NCCCNC(=O)c1ccc[nH]c1=O)c1cc(-c2ccccc2)on1 [NCGC00386818-01, ML327]	–	–	–
–	0.376	952.7	1.1	402	CC(=O)SCC(=O)c1ccc(NS(=O)(=O)c2ccc(OCCCN(C)C)cc2)nc1 [NCGC00387131-01, KD 5170]	–	–	–
–	11.9	74.8	1.1	142	Cc1cc(Nc2nc(-c3ccccc3)nc3ccccc23)n[nH]1 [NCGC00387776-01, GSK-3 inhibitor XIII]	–	–	–
–	0.0211	292.6	1.2	–	CC[C@H](C)[C@H](NC(=O)[C@H]([C@@H](C)CC)N(C)C(C)=O)C(=O)N[C@H](C(=O)N[C@@H](CC(C)C)C(=O)[C@@]1(C)CO1)[C@@H](C)O [NCGC00389337-01, Epoxomicin]	–	0.0211	73.2

LysoFix-GBA response (GCase-L444P lysosomal activity) [1]	AC50 (HiBiT-GCase-L444P; follow-up screen, 24 h) [µM]	AUC (HiBiT-GCase-L444P; follow-up screen, 24 h)	CC-v2 (HiBiT-GCase-L444P; follow-up screen, 24 h)	Efficacy (HiBiT-GCase-L444P; [3])	Compound	Effect on GluSph accumulation [2]	EC50 (HiBiT-GCase-L444P; follow-up screen, 24 h) [µM]	Efficacy (HiBiT-GCase-L444P; [4]) [%]
–	10.6	157.8	1.1	264	COc1cccc(NC[C@@H](O)Cn2c3ccc(Br)cc3c3cc(Br)ccc32)c1 [NCGC00408808-01, (R)-P7C3-Ome]	–	–	–
–	10.6	121.6	1.1	137	Cc1cccc2c1NC(=O)C2(c1ccc(O)cc1)c1ccc(O)cc1 [NCGC00408892-01, BHPI]	–	–	–
–	21.1	113.4	1.1	124	O=C(O)C1(c2ccc(-c3ccc(Cl)c(Cl)c3)c(F)c2)CC1 [NCGC00408905-01, CHF 5074]	–	–	–
–	1.7	200.3	1.1	117	C=C1CN(Cc2ccc(C(=O)Nc3ccccc3N)cc2)C(=O)c2ccccc21 [NCGC00480746-01, MI 192]	–	–	–
–	4.2	251.3	1.1	215	Cc1sc2c(c1C)C(c1ccc(Cl)cc1)=N[C@@H](CC(=O)NCCCCNC(=O)COc1cccc3c1C(=O)N(C1CCC(=O)NC1=O)C3=O)c1nnc(C)n1-2 (stereo partly drawn) [NCGC00483928-02, dBET1]	–	–	–
–	23.7	112.0	2.4	71	COc1cc(/C=C/C(=O)NCCn2c(C(F)(F)F)cc3ccccc32)cc(OC)c1OC [NCGC00484068-02, TG6-10-1]	–	–	–
–	42.1	-30.0	1.2	42	Clc1cccc(C2CCN(CCCOc3ccc4scnc4c3)CC2)c1Cl [NCGC00510336-01, UNC 9994 hydrochloride]	–	–	–
–	7.5	409.2	1.1	–	O=C(NO)c1cnc(NC2(c3ccccc3)CC2)nc1 [NCGC00511370-02, ACY-738]	–	–	–
–	1.1	837.5	1.1	475	O=C(CCc1ccc(CN[C@H](C(=O)OC2CCCC2)C2CCCCC2)cn1)NO [NCGC00522525-01, HDAC-IN-3]	–	–	–
–	3.3	516.9	1.1	348	Cc1nn(C)cc1CN1CCC(c2ccc(C(=O)Nc3ccccc3N)cc2)CC1 [NCGC00522526-01, HDAC-IN-4]	–	–	–
–	8.4	19.4	1.2	41	O=C(NO)c1cnc(NC2(c3cccc(F)c3)CCCCC2)nc1 [NCGC00531749-01, ACY-775]	–	–	–
–	89.1	-9.7	1.2	55	CCCCCOC1CCC(NC(=O)c2cnn3c(C)cc(C)nc23)CC1 (stereo not drawn) [NCGC00532316-03, LTI-291]	–	–	–
–	16.8	276.4	1.1	–	Nc1cc(F)ccc1NC(=O)c1ccc(CNC(=O)/C=C/c2cccnc2)cc1 [NCGC00685364-01, Tucidinostat]	–	–	–
–	14.9	128.1	1.1	141	COc1ccc(N(C)c2nc(C)nc3ccccc23)cc1OCCCC(=O)NO [NCGC00685385-01, SKLB-23bb]	–	–	–
negative	–	–	–	–	CC(C)C[C@H](NC(=O)[C@H](Cc1ccccc1)NC(=O)c1cnccn1)B(O)O [bortezomib]	–	–	–
–	14.9	266.8	1.1	348	NKL 22 [NCGC00522469-01]	–	–	–

Compound	LysoFix-GBA response (GCase-L444P lysosomal activity) [1]	AC50 (HiBiT-GCase-L444P; follow-up screen, 24 h) [µM]	AUC (HiBiT-GCase-L444P; follow-up screen, 24 h)	CC-v2 (HiBiT-GCase-L444P; follow-up screen, 24 h)	Efficacy (HiBiT-GCase-L444P; [3])	Effect on GluSph accumulation [2]	EC50 (HiBiT-GCase-L444P; follow-up screen, 24 h) [µM]	Efficacy (HiBiT-GCase-L444P; [4]) [%]
O[C@H]1[C@H](O)CNC[C@@H]1C(F)F [AT3375]	inhibited	–	–	–	–	–	–	–
C[C@]12CC[C@H](O[C@@H]3O[C@H](CO)[C@@H](O)[C@H](O)[C@H]3O[C@@H]3O[C@H](CO)[C@@H](O)[C@H](O)[C@H]3O)CC1=CC[C@@H]1[C@@H]2CC[C@]2(C)[C@@H](C3=CC(=O)OC3)CC[C@]12O [NCGC00385195-01]	–	7	74.1	1.1	127	–	–	–
COc1ccc(CC2C(=O)NC(C)C(=O)N(C)C3Cc4ccc(cc4)Oc4cc(ccc4OC4OC(CO)C(O)C(O)C4O)CC(C(=O)NC(C)C(=O)NC(CCC(=O)O)C(=O)N2C)N(C)C3=O)cc1 (stereo not drawn) [NCGC00385295-01]	–	11.3	30.6	1.2	55	–	–	–
COC1CC(O[C@H]2CC[C@]3(C)C4CC[C@]5(C)[C@@H](C6=CC(=O)OC6)[C@@H](OC(C)=O)C[C@]5(O)C4CC[C@@H]3C2)OC(C)C1O[C@@H]1O[C@H](CO)[C@@H](O)[C@H](O)[C@H]1O (stereo partly drawn) [NCGC00385413-01]	–	0.125	75.1	1.4	45	–	–	–
Cc1sc2c(c1C)C(c1ccc(Cl)cc1)=N[C@@H](CC(=O)Nc1ccc(OCCOCCOCCOCCNc3cccc4c3C(=O)N(C3CCC(=O)NC3=O)C4=O)cc1)c1nnc(C)n1-2 (stereo partly drawn) [NCGC00483927-03, ARV-825]	two- to fourfold	0.0473	333.1	1.3	–	–	0.0473	86.9

Structures can show the parent of a compound that is named as a salt. Where two headings read alike, the source gives them in different places.
